Measured values reported in US20090130106A1 (UNIVERSITY OF SYDNEY, published 2009).

Tests used:
[1] = target: T1, CD45 on human cell lines (Raji, MEC-2, CCRF-CEM) (human, UniProt P08575 26-1306); experiment: flow cytometry on Raji cells, 488/575 nm
T1 construct: whole, on cells; Endogenous CD45 on the human cell lines; also called pan leukocyte marker
T1 sequence (looked up): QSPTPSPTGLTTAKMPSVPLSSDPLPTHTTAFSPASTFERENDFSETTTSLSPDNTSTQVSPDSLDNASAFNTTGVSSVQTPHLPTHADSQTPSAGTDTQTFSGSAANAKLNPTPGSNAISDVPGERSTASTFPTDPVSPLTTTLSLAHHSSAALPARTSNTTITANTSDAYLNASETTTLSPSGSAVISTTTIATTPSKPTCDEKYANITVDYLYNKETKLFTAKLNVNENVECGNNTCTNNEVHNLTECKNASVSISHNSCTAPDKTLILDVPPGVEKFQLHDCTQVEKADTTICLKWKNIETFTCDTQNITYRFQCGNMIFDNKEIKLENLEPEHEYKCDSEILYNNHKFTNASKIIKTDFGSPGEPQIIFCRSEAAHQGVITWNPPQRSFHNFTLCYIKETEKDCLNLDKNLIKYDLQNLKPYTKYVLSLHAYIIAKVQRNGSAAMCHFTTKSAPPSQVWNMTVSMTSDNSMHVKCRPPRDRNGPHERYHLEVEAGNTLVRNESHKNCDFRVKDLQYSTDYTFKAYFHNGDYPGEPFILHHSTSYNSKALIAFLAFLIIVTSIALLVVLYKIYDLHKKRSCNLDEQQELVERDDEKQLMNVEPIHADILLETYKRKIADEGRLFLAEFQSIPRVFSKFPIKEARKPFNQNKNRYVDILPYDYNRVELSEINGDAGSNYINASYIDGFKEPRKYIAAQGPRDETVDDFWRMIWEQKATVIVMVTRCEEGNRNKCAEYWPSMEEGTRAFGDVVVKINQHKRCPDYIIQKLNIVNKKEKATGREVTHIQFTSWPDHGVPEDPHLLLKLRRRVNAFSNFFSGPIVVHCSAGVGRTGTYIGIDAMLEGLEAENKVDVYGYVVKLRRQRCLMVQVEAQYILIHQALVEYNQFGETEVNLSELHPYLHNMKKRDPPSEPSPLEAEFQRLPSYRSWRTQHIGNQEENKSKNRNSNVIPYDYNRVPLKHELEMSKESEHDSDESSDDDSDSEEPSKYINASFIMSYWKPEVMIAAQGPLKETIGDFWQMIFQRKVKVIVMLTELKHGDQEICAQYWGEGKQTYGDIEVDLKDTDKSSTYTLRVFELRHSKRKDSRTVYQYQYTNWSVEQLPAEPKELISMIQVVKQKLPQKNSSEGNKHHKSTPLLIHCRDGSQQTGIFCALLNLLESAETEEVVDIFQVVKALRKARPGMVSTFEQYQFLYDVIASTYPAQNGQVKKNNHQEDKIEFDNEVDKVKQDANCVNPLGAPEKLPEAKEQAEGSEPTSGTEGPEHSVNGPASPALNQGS
Experimental: (§1) Suspensions of the human cell lines Raji (CD20⁺, CD45⁺), MEC-2 (CD20⁺, CD45⁺), CCRF-CEM (CD20⁻, CD45⁺) were harvested (500 g, 10 min, room temperature), washed with PBS+5% v/v FCS, centrifuged and resuspended in PBS+5% v/v FCS to a final concentration of 1×10⁶ cells/mL. To label cells with one or both Demibodies, 300 μL cell suspension (3×10⁵ cells) was incubated with 30 μL Demibody (200 μg/mL, Demibody A (DBA; CD45-mOrange-E3), Demibody B (DBB; CD20-T-Sapphire-K3)) for 60 min in the dark at room temperature. Based upon the known immunophenotypes of these cell lines, the following binding patterns are expected.
(§2) The more than 7-fold shift in mean fluorescence detected at 575 nm (red numbers) indicates the binding of DBA to all three cell lines as expected, since they express CD45 which binds to DBA. A minor shift in fluorescence was detected for the binding of DBB on Raji and MEC-2 cells. A minor FRET signal was detected for the Raji cell line.

[2] = target: T2, Trx-CD20-T-Sapphire-K3 (Demibody B); experiment: flow cytometry FRET 407/585 nm on CCRF-CEM cells (CD20-); Table 6 rates this as no FRET
T2 construct: also called DBB; CD20-Sapphire-K3
Experimental: as §1, §2

[3] = target: T2, Trx-CD20-T-Sapphire-K3 (Demibody B); experiment: flow cytometry FRET 407/585 nm on Raji cells
Experimental: as §1, §2

[4] = target: T1, CD45 on human cell lines (Raji, MEC-2, …); experiment: flow cytometry on CCRF-CEM cells, 488/575 nm
Experimental: as §1, §2

[5] = target: T2, Trx-CD20-T-Sapphire-K3 (Demibody B); experiment: flow cytometry FRET 407/585 nm on MEC-2 cells; Table 6 rates this as no FRET
Experimental: as §1, §2

[6] = target: T1, CD45 on human cell lines (Raji, MEC-2, …); experiment: flow cytometry on MEC-2 cells, 488/575 nm
Experimental: as §1, §2

T2 sequence (chain, as listed by the source): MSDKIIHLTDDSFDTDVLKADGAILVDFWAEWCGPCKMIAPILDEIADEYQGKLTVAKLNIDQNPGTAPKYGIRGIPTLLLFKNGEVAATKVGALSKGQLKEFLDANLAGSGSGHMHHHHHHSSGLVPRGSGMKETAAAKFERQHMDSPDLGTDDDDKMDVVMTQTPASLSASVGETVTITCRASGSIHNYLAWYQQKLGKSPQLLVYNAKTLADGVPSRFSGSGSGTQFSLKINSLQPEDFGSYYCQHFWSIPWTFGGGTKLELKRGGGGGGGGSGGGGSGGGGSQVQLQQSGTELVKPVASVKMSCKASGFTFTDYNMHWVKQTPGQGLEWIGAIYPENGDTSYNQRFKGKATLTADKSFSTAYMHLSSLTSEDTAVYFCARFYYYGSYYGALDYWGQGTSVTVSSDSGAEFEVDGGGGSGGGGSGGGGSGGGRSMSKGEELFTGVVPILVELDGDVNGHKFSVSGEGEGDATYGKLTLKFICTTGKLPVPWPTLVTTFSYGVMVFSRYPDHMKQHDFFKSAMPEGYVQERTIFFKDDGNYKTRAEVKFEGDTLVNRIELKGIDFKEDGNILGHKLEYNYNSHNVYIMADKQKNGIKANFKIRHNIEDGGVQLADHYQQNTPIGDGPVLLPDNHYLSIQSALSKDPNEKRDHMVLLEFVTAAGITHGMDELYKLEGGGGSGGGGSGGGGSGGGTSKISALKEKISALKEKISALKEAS

B1: Trx-CD45-mOrange-E3 (Demibody A) (scFv)
chain: [about 100 residues not listed]GSGSGHMHHHHHHSSGLVPRGSGMKETAAAKFERQHMDSPDLGTDDDDKQVQLVESGGGLVQPGGSLKLSCAASGFDFSRYWMSWVRQAPGKGLEWIGEINPTSSTINFTPSLKDKVFISRDNAKNTLYLQMSKVRSEDTALYYCARGNYYRYGDAMDYWGQGTSVTVSKISGGGGSGGGGSGGGGSGGGGSGGGGSSDIVLTQSPASLAVSLGQRATISCRASKSVSTSGYSYLHWYQQKPGQPPKLLIYLASNLESGVPARFSGSGSGTDFTLNIHPVEEEDAATYYCQHSRELPFTFGSGTKLEIKVDGGGGSGGGGSGGGGSGGGRSMVSKGEENNMAIIKEFMRFKVRMEGSVNGHEFEIEGEGEGRPYEGFQTAKLKVTKGGPLPFAWDILSPQFTYGSKAYVKHPADIPDYFKLSFPEGFKWERVMNFEDGGVVTVTQDSSLQDGEFIYKVKLRGTNFPSDGPVMQKKTMGWEASSERMYPEDGALKGEIKMRLKLKDGGHYTSEVKTTYKAKKPVQLPGAYIVGIKLDITSHNEDYTIVEQYERAEGRHSTGGMDELYKLEGGGGSGGGGSGGGGSGGGTSEISALEKEISALEKEISALEKAS
notes: also called DBA; Trx-DBA
ratio of the mean fluorescence (cells + Demibody/cells) [1]: 7.7 ratio | FRET ratio of the mean fluorescence (cells + Demibody/cells) [2]: 1.2 ratio | FRET ratio of the mean fluorescence (cells + Demibody/cells) [3]: 1.6 ratio | ratio of the mean fluorescence (cells + Demibody/cells) [4]: 7.5 ratio | FRET ratio of the mean fluorescence (cells + Demibody/cells) [5]: 1.3 ratio | ratio of the mean fluorescence (cells + Demibody/cells) [6]: 7.8 ratio
